Assay results as given in PubChem BioAssay AID938 (National Center for Advancing Translational Sciences (NCATS), 2007).
Out of some 73,000 compounds screened, about 1,800 (2.5%) were called active. Inconclusive results, whose numbers are uncertain, are shown with a selection of clear calls. The call rests on the fitted dose curve; in most records, active means well fitted activation curve with a large enough effect; inconclusive means small, poorly fitted or top-dose-only effect; inactive means no such curve, though single readings can be large or run the other way. No potency is given beside an inconclusive call; the fits are too rough.

Experiment: qHTS Assay for Agonists of the Thyroid Stimulating Hormone Receptor: Activators of Intracellular cAMP Concentrations in Parental HEK 293; further: nearly all actives have a fitted effect of over 55% in size; on activation: % of control where 0% means no effect
Settings: parental HEK293 CNG cAMP sensor, membrane potential fluorescence; activation: at 57.1 µM (top of the series) unless noted
How it was run: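 Parental HEK 293 cells stably expressing a cAMP-gated CNG channel were loaded with membrane potential dye containing 100 uM RO 20-1724 for 60 min. Compound added for 30 min; depolarization read as fluorescence intensity at 590 nm.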
Potency means the concentration at half of the fitted maximal effect; tags describe the fitted curve by direction and shape.

Structure (SMILES) | activation | Potency
CO[C@H]1COC(=O)CCC[C@H](C)[C@@H](OC)COC(=O)C/C=C\[C@@H]1C | inactive: -3.78% [at 11.4 µM] | 
Cc1nc2cnc(Nc3ccccc3)nc2n(CCC#N)c1=O |  | inconclusive [activator, partial curve]
COc1ccc(Oc2ncc3nc(-c4cccs4)c(=O)n(Cc4cccc(OC)c4)c3n2)cc1 |  | inconclusive [activator, partial curve]
O=C(O)c1cc(NS(=O)(=O)c2cccc3ccccc23)ccc1O | inactive: 2.78% | 
Clc1ccc(-c2nnc3sc(-c4ccc(Br)o4)nn23)cc1 | inactive: 4.29% | 
O=C(CSc1nnc(Cc2ccccc2)n1Cc1ccco1)NC1CCCC1 |  | inconclusive [activator, partial curve]
COc1ccc(NC(=O)N2CC3(CCNCC3)C2)cc1 | inactive: -7.36% | 
COc1cccc(C2C(C)CCC3C(=O)N(C)C(C(C)C)C(=O)N32)c1 (stereo unspecified) | inactive: -1.44% [at 11.4 µM] | 
CC1(C)CC(N=C=O)CC(C)(CN=C=O)C1 (stereo unspecified) | inactive: 24.2% | 
CC(C)(C)n1nnnc1C(c1cccs1)N1CCCC2(CCCCC2)C1 (stereo unspecified) |  | inconclusive [activator, partial curve, poor fit]
Cn1cccc1C(C(=O)NC1CCCCC1)N(C(=O)Cc1cccs1)c1ccc2c(c1)OCCO2 (stereo unspecified) |  | inconclusive [activator, partial curve, poor fit]
Cn1c(=O)c2c(nc(N3CCCCCC3)n2CC(O)COc2ccc(Cl)cc2)n(C)c1=O (stereo unspecified) | inactive: -35.3% | 
COc1ccc(-n2nc(C(=O)Nc3ccc4c(c3)OCO4)c3ccccc3c2=O)c(OC)c1 |  | inconclusive [activator, single point]
CC(C)NC(=O)N1CCC2(CC1)CCN(C(=O)c1ccncc1)CC2 | inactive: 3.07% | 
CN1CCN(C(=O)c2cc3nc(-c4ccccc4)cc(C(F)(F)F)n3n2)CC1 | inactive: 6.18% | 
Cc1cccc(-c2nnc3sc(-c4ccccc4)nn23)c1 |  | inconclusive [activator, single point]
COc1ccc(OC)c(C(c2nnnn2C2CCCC2)N2CCN(c3ccccc3)CC2)c1 (stereo unspecified) |  | inconclusive [activator, full curve]
CC(Sc1nnnn1-c1ccccc1)C(=O)Nc1ccc(Cl)cn1 (stereo unspecified) |  | inconclusive [activator, partial curve]
CCCNC(=O)c1noc2c1CCc1ccccc1-2 | inactive: 10.3% | 
c1ccc(-c2nnc(-c3ccco3)n2-c2ccccc2)cc1 |  | inconclusive [activator, single point]
CC(O)(P(=O)(O)O)P(=O)(O)O | inactive: 5.95% [at 25.6 µM] | 
O=C(Nc1ccc(Cl)c(C(F)(F)F)c1)c1ccco1 | inactive: 1.31% [at 11.4 µM] | 
O=C(Nc1ccccc1C(=O)NCc1ccco1)c1ccccc1 |  | inconclusive [activator, partial curve]

Structure (SMILES) | activation | Potency
Cc1cc(C)n(-c2ccc(C(=O)Nc3ccc(S(=O)(=O)NCc4ccco4)cc3)cc2)n1 | inactive: 23.3% | 
CN(C)C(=O)c1ccc(-c2cncnc2NCCN2CCOCC2)cc1 | inactive: 5.81% | 
O=C(NCC1CCCO1)C1c2ccccc2C(=O)N1C1CCCCCCC1 (stereo unspecified) | inconclusive: 31.7% [activator] | 
O=C(CSc1nc2ccccc2s1)NC(=O)NCc1ccco1 |  | inconclusive [activator, partial curve]
COc1ccc(CCNc2nc(-c3ccco3)cc(C(F)(F)F)n2)cc1OC |  | inconclusive [activator, single point]
CC(C)=C[C@H]1[C@@H](COC(=O)c2ccccc2Cl)C1(C)C |  | inconclusive [activator, single point]
Cc1cccc(CNc2ncnc3ccc(-c4cccnc4)cc23)c1 |  | inconclusive [activator, partial curve]
Cc1cc(N2CCOCC2)nc(SCC(=O)c2ccc(Cl)cc2)n1 |  | inconclusive [activator, partial curve]
CCOC(=O)CSc1nc2c(sc3ccccc32)c(=O)n1CCCN1CCOCC1 |  | active: 12.6 µM
COc1cc2cc(CN(C(=O)NC3CCCCC3)C3CCCC3)c(=O)[nH]c2cc1OC |  | inconclusive [activator, single point]
COCCn1c(=O)c(-c2cccc(C#N)c2)nc2cnc(N(C)C)nc21 | inactive: -5.35% | 
COC(=O)C1=C(C)N(CCc2ccc(OC)cc2)C(=O)C1 |  | inconclusive [activator, single point]
O=c1[nH]cnc2nc(-c3ccccc3)c(-c3ccccc3)nc12 |  | inconclusive [activator, partial curve]
O=C1c2ccccc2C(O)(Cc2ccccc2)N1C1CCCCC1 (stereo unspecified) |  | inconclusive [activator, partial curve]
O/N=C1\CC(O)Cc2nonc21 (stereo unspecified) |  | inconclusive [activator, single point]
CC(C)CCNC(=O)c1cnn2c(C(F)(F)F)cc(-c3ccco3)nc12 | inactive: 28.5% | 
CC(=O)Oc1c(Cl)c(N2CCOCC2)c(OC(C)=O)c2ccccc12 |  | inconclusive [activator, single point]
O=C(Cc1ccccc1)Nc1nc2ccc(Cl)cc2c2nc(-c3ccco3)nn12 |  | inconclusive [activator, partial curve, poor fit]
Cn1ccnc1SCC(=O)Nc1ccc2ccccc2c1 | inactive: 1.6% | 
CCCOc1ccc(Cn2cnc3ccccc32)cc1 |  | inconclusive [activator, single point]
COC(=O)N(C)c1nc2ccccc2s1 |  | inconclusive [activator, single point]
Cc1ccc(-n2nc(C)c3c2OC(N)=C(C#N)C3c2ccco2)cc1 (stereo unspecified) |  | inconclusive [activator, single point]
O=C1C[C@@H](O)[C@@H](O)[C@H]2[C@@H]3C(=O)N(Cc4ccccc4)C(=O)[C@@H]3CC[C@H]12 |  | inconclusive [activator, single point]
